Among the data in ChEMBL document CHEMBL1156829 are IFI values, retold here.

The structures appear in SMILES notation. Over roughly 5,400 compounds, “IFI” has its median near 2; the highest 2% begin near 22. The list shows a part of the results.

This experiment can be described thus: NOVARTIS: Inhibition Frequency Index (IFI) - the number of HTS assays where a compound showed > 50% inhibition/induction, expressed as a percentage of the number of assays in which the compound was tested. It counts as functional.
`CN(C)CCCNCc1cc(-c2cccnc2)ccc1O`: the IFI turned out to be 1.71%. `O=C(COc1cccc(Cl)c1)Nc1nccs1` came in with an IFI of 5.95%. `CC1Cc2ccc(F)cc2CN1C(=O)c1ccc(COc2ccccc2Br)o1` (stereo unspecified) had an IFI of 2.86%.

In the case of `CC(C)CN1CCC(O)(c2ccc3oc(C(=O)Nc4ccc5c(c4)OCO5)cc3c2)CC1`, the IFI came to 0.848%. With `O=C(CCl)NCCCCNc1ccnc2cc(Cl)ccc12` the figure was 2.04%; with `Cc1cc(Nc2ccc(N(C)C)cc2)n2ncnc2n1`, 0%.

`COc1ccc2nc(C)cc(Nc3ccc(N4CCN(C)CC4)cc3)c2c1` returned an IFI of 5.59%.

In the case of `N=c1n(CCN2CCCC2)c2ccccc2n1CC(O)c1ccc(Cl)c(Cl)c1` (stereo unspecified), the IFI came out at 8.2%. `CC[n+]1c(C)cc2c(sc3ccccc32)c1C`: the IFI was 9.26%.

Compound `COC1=CC(=O)c2c(ccc3cc(O)ccc23)C1=O` returned an IFI of 7.02%.

`CN1CCc2c(sc3nc(SCc4ccc(F)cc4)n(-c4ccccc4)c(=O)c23)C1` had an IFI of 2.5%. With `CN(C)c1ccc(C2N(C)c3ccccc3N2C)cc1` the figure was 5.73%.

`c1ccc(-c2c3c(cc4ccccc24)C[N+]2(CCCC2)C3)cc1` displayed an IFI of 3.03%. The same measure for `COc1cccc(C2C(C(=O)Nc3ccccc3)=C(C)N=c3sc(=Cc4c[nH]c5ccccc45)c(=O)n32)c1` (stereo unspecified): 2.44%; for `Cc1ccccc1C=NNc1nc2ccccc2[nH]1`: 0%.

`O=C(Nc1ccc(N2CCCCC2)cc1)c1cc2ccccc2o1`: the IFI came to 10.9%.

`O=C1c2cccc3cccc(c23)C(=O)N1c1ccc(-c2c3ccccc3c(-c3ccc(N4C(=O)c5cccc6cccc(c56)C4=O)cc3)c3ccccc23)cc1` registered an IFI of 0%. In turn, `CC(C)c1cccc(C(C)C)c1NC(=O)N(Cc1ccccc1)C(C)c1nc2ccccc2c(=O)n1-c1ccc(Cl)cc1` (stereo unspecified) gave an IFI of 4.21%. The same measure for `Cc1c2cnn(CC(=O)O)c(=O)c2c(C)n1Cc1cccc(Cl)c1`: 0%. On to `Cc1ccccc1Cn1c(C)c[n+]2ccsc12`, for which the IFI worked out at 0%. The same measure for `O=C(O)c1ccc2c(c1)N=C(c1ccccc1)N(Cc1cccnc1)C2`: 1.22%; for `CC(C)(C)CC(C)(C)Nc1c(-c2ccccc2OC(=O)C2CCC2)nc2ccccn12`: 3.85%; for `CC(C)CC1C(c2ccc(Cl)cc2)C(C(=O)c2ccccc2)C2(C(=O)Nc3ccc(Br)cc32)N1C(=O)NCc1ccccc1` (stereo unspecified): 3.64%. The same measure for `COC(=O)C1=C(C)N(C)C(C)=C(C(=O)OC)C1c1ccc([N+](=O)[O-])cc1`: 0%; for `CCOc1ccc(S(=O)(=O)Oc2cccc3cccnc23)cc1`: 0%. With `Cn1nc(C(=O)NCc2ccc(F)cc2)c2c1CCC(N1CCC(CO)CC1)C2` (stereo unspecified) the figure was 1.25%; with `Cc1c(-c2ccccc2)c2ccccc2n1CCc1ccc(C)[n+](C)c1`, 1.22%. `O=C(COc1ccccc1)Nc1nccs1`: the IFI is 7.48%. With `CN(C)CCCNc1ncc(C(=O)NCc2ccccc2)c(NCCc2ccccc2)n1` the figure was 3%; with `CCc1cc2c(Sc3nnc(N)s3)ncnc2s1`, 3.08%; with `CN(C)c1ccc(N=Cc2ccc(N3CCOCC3)cc2)cc1`, 0%. With `Cc1cc(N2CCCCC2)nc(NCc2ccccc2)n1` the figure was 2.35%. The same measure for `CCCCCOc1ccc(/C=C2/N=C(c3ccccc3)OC2=O)cc1`: 0%; for `O=C(O)CCCCCNc1ncnc2sc3c(c12)CCCC3`: 0.741%.

Consider `Cc1cc2c(cc1C)NC(c1ccccc1F)C1=C(CC(C)(C)CC1=O)N2` (stereo unspecified), for which the IFI turned out to be 2.56%. As for `CCOc1ccc2nc(C)c(CN(C)Cc3ccccc3)c(O)c2c1`, the IFI turned out to be 0%.

`Cc1cc(C)cc(NC(=O)c2cc(-c3ccc(Cl)cc3)nc3ccccc23)c1` returned an IFI of 2.7%. The same measure for `CCC1CCCCN1C(=O)C1CC(=O)N(c2ccc(OC)cc2)C1c1ccc(OC)cc1` (stereo unspecified): 0%; for `CCOC(=O)C1=C(C)N/C(=C\c2cc(C)n(-c3ccc(C)cc3C)c2C)C1=O`: 0%; for `CCc1nnc2sc(-c3ccc(NC(=O)c4ccc(Br)o4)cc3)nn12`: 7.69%. `CCOC(=O)c1c(NC(=O)c2ccc(S(=O)(=O)N(C)c3ccccc3)cc2)sc2c1CCN(C(=O)OCC)C2`: the IFI came out at 0%. The same measure for `COc1ccc(C2=C/C(=C/c3cccc(OC)c3OC)C(=O)O2)cc1OC`: 0%; for `CCOC(=O)c1cnc2ccc(OCC)cc2c1NCC1CCCN1CC` (stereo unspecified): 0%; for `CCCC(=O)N1c2ccc(OC)cc2-c2c(ssc2=S)C1(C)C`: 0%. With `COc1ccc(C(OCCS(=O)(=O)CCO)(c2ccccc2)c2ccc(OC)cc2)cc1` the figure was 0.746%; with `Cc1ccccc1OCCSc1nc2ccc(NC(=O)c3cccs3)cc2s1`, 0%; with `Cc1c(C)c2c(c(C)c1O)CC[C@](C)(CN1CCN(c3cc(N4CCCC4)nc(N4CCCC4)n3)CC1)O2`, 5.2%. For `O=C(Oc1ccc(N2C(=O)c3ccc([N+](=O)[O-])cc3C2=O)cc1)c1ccco1`, the IFI was determined as 0%. With `CC(=O)N(C1=C(N2CCOCC2)C(=O)c2ccccc2C1=O)c1ccc(F)cc1` the figure was 24.7%; with `Cc1ccccc1NC(=O)N1CCN(C(=O)c2nc(-c3ccccc3)nc(C)c2C(=O)OC(C)C)CC1C` (stereo unspecified), 1.89%; with `Cc1cc(Nc2ccc(Cl)c(Cl)c2)n2nc(C)nc2n1`, 0%. With `COc1ccc(C2CC(=O)C3=C(C2)NC(C)=C(C(=O)OC2CCCCC2)C3c2ccc(F)cc2)cc1OC` (stereo unspecified) the figure was 4.71%. With `Cc1sc2nc3c4ccccc4c(NCCCN(C)C)nn3c(=O)c2c1C` the figure was 12.5%; with `Cc1ccc(NC(=O)c2sc3nc4c(c(-c5cccs5)c3c2N)CCCC4)cc1`, 2.41%; with `C=C(c1ccccc1)[n+]1ccc(/C=C/c2ccccc2O)cc1`, 5.46%. In turn, `CCC(COC)NC(=O)c1cn(C2CCCCC2)cc(C(=O)NC(C)(C)C)c1=O` (stereo unspecified) registered an IFI of 1.71%.

`CCN1CCN(c2cc(C)c3cc(NC(=O)/C=C/c4cccc(Cl)c4)ccc3n2)CC1` registered an IFI of 0%. With `c1ccc(C2CC(C3CC(c4ccccc4)OC(c4ccccc4)C3)CC(c3ccccc3)O2)cc1` (stereo unspecified) the figure was 13.3%; with `CC(C)(C)NC(=O)C(C1CC1)N1C(=O)c2cc(O)ccc2NC(=O)[C@@H]1CCCCN` (stereo partly specified), 0.826%. `CC(C)(C)c1ccc2c(c1)CN(C1CCCCC1)CO2` showed an IFI of 1.82%. With `CCCCCCOc1ccc(C(C)=NNC2=NCCN2)cc1[N+](=O)[O-]` the figure was 0%; with `c1ccc(C2=Nc3ccccc3C(c3ccccc3)(c3ccccc3)N2)cc1`, 0%. The same measure for `COc1cccc(-c2cc(N=C(NCc3ccco3)SC)n[nH]2)c1`: 0%. With `O=c1ccc2cc(Cl)c(O)c(Cl)c2o1` the figure was 7.14%; with `COc1ccc(-c2cc3c(nn2)-c2ccccc2C3=O)cc1`, 8.05%.

For `C[n+]1cc(-c2ccc3cccc([N+](=O)[O-])c3n2)cc2ccccc21`, the IFI turned out to be 15.4%. With `NS(=O)(=O)c1ccc(CCNC(=O)/C=C/c2ccc3c(c2)OCO3)cc1` the figure was 0%; with `CCNC(=O)NCCSc1nc(-c2ccccc2)c(-c2ccccc2)n1CC`, 0%. The same measure for `CNc1nc(Cl)nc(Nc2ccccc2)n1`: 3.23%; for `CCC(c1nc2ccccc2c(=O)n1-c1ccc(F)cc1)N(CCc1ccccc1)C(=O)CCc1ccccc1` (stereo unspecified): 3.16%.

`COc1ccc(CCNC(=O)c2cc(S(=O)(=O)N3CCC4(CC3)OCCO4)ccc2F)cc1OC` showed an IFI of 2.33%. With `Cc1cc(C)n(-c2ccc(NC(=O)C3CCN(Cc4cc(C)c(C)o4)CC3)cc2)n1` the figure was 0%. The same measure for `Fc1ccc(N2CCN(c3ncnc4c3cnn4-c3ccccc3)CC2)cc1`: 0%; for `O=C(NCCc1nc(-c2cccnc2)n[nH]1)C12CC3CC(CC(C3)C1)C2`: 0%; for `O=C(C1CC1)n1cc(C(=O)C(F)(F)F)c2ccccc21`: 1.54%. With `CN1CCC(N2CCC(Oc3cccc(C(=O)NCCC4=CCCCC4)c3)CC2)CC1` the figure was 7.69%; with `CCc1ccc(C(=O)Oc2ccccc2-c2nc3ccccn3c2NC(C)(C)CC(C)(C)C)cc1`, 5.66%; with `COc1ccc(C(C)=O)cc1N1C(=O)C2C(C1=O)C1(c3ccccc3)C(=O)C2(c2ccccc2)C(c2ccc(C)cc2)=C1c1ccc(C)cc1` (stereo unspecified), 0%. Take `O=C(CN1CCCC1C(c1ccccc1)c1ccccc1)N1CCSCC1` (stereo unspecified): the IFI was determined as 0.962%. The same measure for `CCOc1ccc(N2C(N)=NC(N)=NC2(C)C)cc1`: 0%. Turning to `COc1ccc(Nc2nc(NN=Cc3cccc(F)c3)nc(Nc3ccc([N+](=O)[O-])cc3)n2)cc1`, the IFI worked out at 3.95%. The same measure for `O=C(CN1CCCC1)Nc1nc(-c2ccc3c(c2)CCN3S(=O)(=O)c2ccccc2)cs1`: 5.26%; for `O=C1NC(=Nc2ccccc2)/C(=C/c2ccc(O)cc2)S1`: 8.33%; for `CCCCCCN(C(=O)CCc1ccccc1)C(CC)c1nc2ccccc2c(=O)n1-c1ccc(Cl)cc1` (stereo unspecified): 2.78%. The same measure for `CN(CCCNc1ccnc2cc(Cl)ccc12)C(=O)c1cccc(F)c1`: 3.77%; for `Cn1c(C(OCC(=O)N2CCN(Cc3ccccc3)CC2)c2cccnc2)cc2ccccc21` (stereo unspecified): 5.83%; for `NNc1nc(NCc2ccccc2)nc(N2CCOCC2)n1`: 3.08%. The same measure for `Cc1ccc2[nH]c3c(NCCN(C(C)C)C(C)C)ncnc3c2c1`: 5.13%; for `O=C(CCCc1nc(-c2ccccc2)no1)NCc1cccnc1`: 0%.

For the compound `CCC[n+]1cccc2ccc3cccnc3c21`, the IFI was 1.59%. `CC(C)N(CC(=O)Nc1cc(C(C)(C)C)nn1-c1ccc(Cl)cc1)C(=O)c1cccc2ccccc12` had an IFI of 0.98%. With `CC(NC(=O)Cc1ccc(F)cc1)C(c1cccs1)N1CCOCC1` (stereo unspecified) the figure was 2%; with `CCOc1ccccc1NC(=O)Nc1ccc2nc(N3CCN(C)CC3)cc(C)c2c1`, 0%; with `Cc1c[nH]c(CCNCc2ccc(OCC(O)CN(C)Cc3ccccc3)cc2)n1` (stereo unspecified), 0%. For `COc1ccc(C2CC(=O)C3=C(C2)NC(C)=C(C(=O)OC(C)C)C3c2cccc(C)c2)cc1OC` (stereo unspecified), the IFI was determined as 6.02%. With `COc1cccc(N2CCN(CCNCCc3ccccc3)[C@@H](Cc3ccc(O)cc3)C2)c1` the figure was 2.47%; with `CCOC(=O)c1c(NC(=O)c2ccc([N+](=O)[O-])cc2[N+](=O)[O-])sc2c1CCCC2`, 0%; with `CCc1ccc(C(=O)N2CCCn3cccc3C2c2ccc(C(C)(C)C)cc2)cc1` (stereo unspecified), 7.53%. With `CCCC(C(=O)OCC)C(C)=NNc1ccccc1[N+](=O)[O-]` (stereo unspecified) the figure was 0%. The same measure for `COC(=O)c1c(S(=O)(=O)NCCc2ccccc2)sc2c1CCN(Cc1cccnc1)C2`: 1.71%; for `CCCCCc1ccc(C(=O)NCCCCNc2ccnc3cc(Cl)ccc23)cc1`: 3.16%.
